Data on 80 compounds can be found in ChEMBL document CHEMBL1201862, “PubChem BioAssay data set” (2004).

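Results reflect a 48-hour exposure of cells in 96-well plates to compound at five concentrations. GI50: concentration for 50% inhibition of growth.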 Active and inactive are the calls of the source. Cut-off read from the data, not from the text of the source: active = GI50 up to about 1.1 µM and inactive = higher. Some results are limits rather than exact numbers.

In the assay the test system is NCI-H322M. Briefly: DTP human tumour cell line panel, 48 h.
As a reminder, the GI50 is the concentration that inhibits growth by half. For `CSc1ccc2c(c1)C(N1CCN(C)CC1)Cc1ccccc1S2` (stereo not given), the GI50 is inactive: 7.94 µM. As for `c1ccc2c(c1)c1ccccc1n2Cn1c2ccccc2c2ccccc21`, the GI50 was inactive: > 100 µM. In the case of `C=CCn1c(S)nnc1C12CC3CC(CC(C3)C1)C2`, the GI50 was inactive: > 100 µM.

`CN1CCN(CCCN)CC1`: the GI50 is inactive: > 100 µM.

For `Cc1c(-c2nc(N)nc(C3CC3)c2C)nc(N)nc1C1CC1`, the GI50 was inactive: > 100 µM. Take `COc1cnc2oc3ccc(O)cc3c2c1-c1ccccc1`: the GI50 was inactive: 24.7 µM.

Regarding `COc1ccc(/C=C/c2nccc3ccccc23)cc1OC`, the GI50 is inactive: > 10 µM. Consider `COc1cccc2c1-c1c(OC)cccc1SS2`, for which the GI50 is inactive: 23.9 µM.

For the compound `COC(=O)C1=C(O)C(C(=O)OC)[C@]2(O)[C@H](C(=O)OC)[C@H]1C[C@@H](c1ccc(Cl)cc1)[C@H]2C(=O)OC` (stereo not given in full), the GI50 is inactive: 6.9 µM.

With `c1ccc(-c2c[nH]c(SC(c3ccccc3)c3ccccc3)n2)cc1`, the GI50 is inactive: 23.7 µM. Regarding `CCCCC1Cc2cc(O)ccc2-c2n1c1cc(O)ccc1[n+]2C.CCCCC1Cc2cc(O)ccc2-c2n1c1ccc(O)cc1[n+]2C` (stereo not given), the GI50 was inactive: 61.4 µM.

As to `CC(C)=CC1CC(C)C2(CCC3(C)CC4C(C(=O)CC4(C)O)/C(C=O)=C\CC32)O1` (stereo not given), the GI50 was active: 0.432 µM. For `CN1C(=O)N/C(=C\c2ccc(S(=O)(=O)N/N=C/c3ccccc3)cc2)C1=O`, the GI50 is inactive: 53.8 µM. Consider `CC1(C)CC(=O)C(Cc2ccccc2)(Cc2ccccc2)C(=O)C1`, for which the GI50 was inactive: > 100 µM. For `CC(C)N(C(=O)C12C3C4C1C1C2C3C41C(O)C(C)(C)C)C(C)C` (stereo not given), the GI50 was inactive: > 50 µM. As for `CCn1c2ccccc2c2cc(NC(=O)c3c(C)nc(O)nc3NCCNCCO)ccc21`, the figure is inactive: > 100 µM; as for `COc1ccc2[nH]c3c(C)c4ccnc(NCCCN(C)CCCN)c4c(C)c3c2c1`, active: 0.243 µM; as for `COc1ccc(-c2cc(-c3ccccc3)nc(/N=C\c3ccccc3)n2)c(O)c1`, inactive: 48.3 µM.

Take `COC(=S)OC1CC(n2cnc3c(N)ncnc32)OC1CO[Si](C)(C)C(C)(C)C` (stereo not given): the GI50 is inactive: 21.3 µM. Take `CC12CC3OC(=O)C1COC14OC5(C2C1=O)C(O)(CCC1C4CC(O)C2(O)CC=CC(=O)C12C)C(=O)OC35C` (stereo not given): the GI50 is inactive: > 100 µM. Consider `CC(=O)OC1C2CCC1C1C2N=NN1c1ccc([N+](=O)[O-])cc1` (stereo not given), for which the GI50 is inactive: > 100 µM. For the compound `CCOC(=O)NC(C(=O)OCC)(N1CCN(c2cc3c(cc2F)c(=O)c(C(=O)O)cn3CC)CC1)C(F)(F)F` (stereo not given), the GI50 is inactive: > 100 µM.

For the compound `O=P(O)(O)CN1CCNCCN(CP(=O)(O)O)CCN(CP(=O)(O)O)CCNCC1`, the GI50 is inactive: > 100 µM. As for `CN(C)CCCNc1c2ccccc2nc2cccc([N+](=O)[O-])c12`, the figure is active: 0.00254 µM; as for `C=CCC(O)c1cc(OC)ccc1OC` (stereo not given), inactive: > 100 µM. In the case of `CC(C)(C)OC(=O)N1C(=O)OC[C@@H]2C=C[C@@H]21`, the GI50 was inactive: > 100 µM. The figure for `CNC(=S)/N=C(\N)N(C)C` is inactive: > 100 µM; for `CCOc1c(Cc2ccccc2)c(=O)n2c3ccccc3n3c(=O)n(C)c(=O)c1c23` it is inactive: > 100 µM. For the compound `Cc1cc(=O)oc2c(CNC(C(=O)O)C(C)O)c(O)ccc12` (stereo not given), the GI50 is inactive: > 100 µM.

For `COc1ccc(/C=C/C(=O)c2sc(-n3nc(-c4ccccc4)cc3-c3ccccc3)nc2C)cc1OC`, the GI50 was inactive: 50.1 µM. On to `CN/N=C(/CC(=O)c1sc(-n2nc(-c3ccccc3)cc2-c2ccccc2)nc1C)C(=O)Nc1ccc(Cl)c(Cl)c1`, for which the GI50 is inactive: > 100 µM. As for `COc1nc(SC)nc2c1cnn2C1OC(C(O)CO)C(OC)C1O` (stereo not given), the figure is inactive: > 100 µM; as for `CCC(C#N)N(Cc1ccc(CN(C(=O)c2ccccc2)C(C#N)CC)cc1)C(=O)c1ccccc1` (stereo not given), inactive: 40.1 µM; as for `CNC(c1ccncc1)C(NC)c1ccncc1` (stereo not given), inactive: > 100 µM. The figure for `CCCCCC(O)(CCCCC)CCCCCCCCC1=C(O)C(=O)c2ccccc2C1=O` is inactive: 14.9 µM. Regarding `CN(CCNC(=O)c1cc(-c2ccccc2)nc2ccccc12)CCNC(=O)c1cc(-c2ccccc2)nc2ccccc12`, the GI50 was inactive: 59.4 µM. As for `O=C(Nc1sccc1S(=O)(=O)c1ccc(Cl)cc1)c1ccc(F)cc1F`, the figure is inactive: 68.2 µM; as for `CNC(=O)CN(C)C(=O)CCC(=O)N(C)C`, inactive: > 100 µM.

`CC(=O)NC1C(CO)O[C@@H]2OC(C)(C)O[C@H]12` (stereo not given in full): the GI50 is inactive: > 100 µM.

As for `COc1cc(C2c3cc(O)c(OC)cc3C3OCC2C3CO)ccc1O` (stereo not given), the GI50 is inactive: > 100 µM. As for `Cc1nc(N)c(-c2ccccc2)s1`, the figure is inactive: 40 µM; as for `COC1(OC)CC(CO)(COc2cc(Cl)nc(N)n2)C1`, inactive: > 100 µM.

In the case of `OC[C@H]1CC(c2nn[nH]n2)[C@H](O)[C@@H]1O` (stereo not given in full), the GI50 is inactive: > 100 µM.

Turning to `CN(C)Cc1cc(/N=N/c2ccccc2)ccc1O`, the GI50 was inactive: 57 µM. For `O=[N+]([O-])C(=C1NCCN1)/C(Cl)=C(\Cl)Br`, the GI50 is inactive: > 100 µM. On to `O=C1C2SC34c5c2c2ccccc2n5CCC3CCCN14` (stereo not given), for which the GI50 is inactive: > 100 µM. On to `CC(C)C(=O)NS(=O)(=O)c1ccccc1`, for which the GI50 was inactive: > 100 µM. Take `CCCN(CCC)C(=O)C(=O)c1c(N)[nH]n(-c2ccccc2)c1=O`: the GI50 was inactive: 74.8 µM. On to `C[C@H]1[C@H](C)CC[C@]2(C(=O)OC3OC(CO)C(O)C(O)C3O)CC[C@]3(C)C(=CC[C@@H]4[C@@]5(C)C[C@H]6OC(=O)c7cc(O)c(O)c(O)c7-c7c(cc(O)c(O)c7O)C(=O)O[C@@H]6C(CO)(CO)[C@@H]5CC[C@]43C)[C@H]12` (stereo not given in full), for which the GI50 is inactive: 37.6 µM.

With `Cn1cc(NC(=O)c2cc(NC(=O)CCCCCCCCC(=O)Nc3cc(C(=O)Nc4cc(C(=O)NCCC(N)N)n(C)c4)n(C)c3)cn2C)cc1C(=O)NCCC(=N)N`, the GI50 was inactive: 17.4 µM.

Take `Cc1ccc(C2(O)CC(c3ccc([N+](=O)[O-])o3)=NN2C(=O)COc2ccccc2Cl)cc1` (stereo not given): the GI50 was inactive: 13.6 µM.

In the case of `CC(C)=CC1CCc2ccccc2N1S(=O)(=O)c1ccc(C)cc1` (stereo not given), the GI50 was inactive: 1.24 µM. As to `CCOC(=O)C1(C/C=C\CBr)CCCC1=O` (stereo not given), the GI50 is inactive: > 100 µM.

With `Cc1ccc(N2C(=O)C(=O)N(/N=C3\C(=O)Nc4ccccc43)C2=S)cc1`, the GI50 was inactive: > 100 µM.

`CCN(CC)CCO/N=C1/C=C2CCC3C(CC[C@@]4(C)C3CC[C@]4(C)O)[C@@]2(C)CC1` (stereo not given in full): the GI50 was inactive: 6.61 µM.

Take `CCN(CC)CCCNc1nccc2c(C)c3[nH]c4ccncc4c(=O)c3cc12`: the GI50 was active: 1.1 µM. As for `O=S(=O)(c1ccccc1)[C@H]1[C@@H]2O[C@@H]2C[C@@H]1O`, the GI50 is inactive: > 100 µM. The figure for `Cc1ccc(S(=O)(=O)C(CC(=O)N2CCCC2)C(=O)c2ccccc2)cc1` (stereo not given) is inactive: > 100 µM; for `O=C(O)c1cc(NC2=C(Cl)C(=O)c3c(O)ccc(O)c3C2=O)ccc1O` it is inactive: > 10 µM; for `CC(C)(C)NC1C2CCC(C)(C1O)C2(C)C` (stereo not given) it is inactive: > 100 µM.

On to `O=c1c2nc[nH]c2n(-c2ccccc2)c(=S)n1-c1ccccc1`, for which the GI50 is inactive: > 100 µM.

Consider `COC(=O)C(CCSc1ccccc1)C(=O)OC`, for which the GI50 is inactive: > 100 µM. The figure for `OC(c1cc(C(O)(C(F)(F)F)C(F)(F)F)ncn1)(C(F)(F)F)C(F)(F)F` is inactive: > 10 µM. Regarding `CC1(C)CCCCCCCCCC(C)(CCCO)C1=O` (stereo not given), the GI50 is inactive: 12.2 µM. As to `O=S(=O)(c1cc(Cl)ccc1Cl)N1CCN(S(=O)(=O)c2cc(Cl)ccc2Cl)CC1`, the GI50 is inactive: > 100 µM. Take `O=C1CSc2sc(=S)sc2S1`: the GI50 is inactive: > 100 µM. For `COC(=O)C(=C\Sc1ccccc1)/C=C/C(=O)OC(C)(C)C`, the GI50 was inactive: 17.1 µM.

Consider `[N-]=[N+]=NC1(N=[N+]=[N-])C(=O)NN=C(c2ccccc2)C1=O` (stereo not given), for which the GI50 was inactive: > 100 µM. The figure for `C=C1CC2CC(O)CC(C1)C2` (stereo not given) is inactive: > 100 µM; for `N#C/N=C1/c2ccccc2/C(=N/C#N)c2cc(CO)ccc21` it is inactive: 34.6 µM; for `Cn1c(=O)c(/N=N/c2c(=O)n(C)c(=O)n3c2[nH]c2ccccc23)c2[nH]c3ccccc3n2c1=O` it is inactive: 90.8 µM. In the case of `CC(=O)O[C@H]1C(=O)[C@@]2(C)[C@H]([C@H](OC(=O)c3ccc([N+](=O)[O-])cc3)[C@]3(O)C[C@H](OC(=O)[C@H](O)[C@@H](NC(=O)c4ccccc4)c4ccccc4)C(C)=C1C3(C)C)[C@]1(OC(C)=O)CO[C@@H]1C[C@@H]2O`, the GI50 is inactive: > 25 µM. Turning to `COC(=O)/C=C/c1cc(OC)c(OC)c(OC)c1`, the GI50 was inactive: > 100 µM. For `COC(=NCCC1=CCCCC1)OC`, the GI50 is inactive: > 100 µM. Turning to `O=c1[nH]c(=O)n(C2OC(COP(=O)(O)OP(=O)(O)OC3OC(CO)C(O)C(O)C3O)C(O)C2O)cc1F` (stereo not given), the concentration for 50% growth inhibition (GI50) is active: 0.0366 µM.

Regarding `C=C1C2C[C@@H]3OC4CC5O[C@]6(CC5OC4C(C)C3OC(=O)CC3CC[C@@H]4OC5C7OC8C[C@](CCC9CC(=C)[C@H](CCC(C[C@H]1C)O2)O9)(OC7C4O3)O[C@@H]85)C[C@@H]1O[C@@]2(CC(C)[C@@H]3OC(CC(=O)CCO)C(O)C[C@@H]3O2)CC(C)[C@@H]1O6` (stereo not given in full), the 50% growth inhibitory concentration (GI50) is active: < 0.001 µM. Consider `C=C1C(OC(=O)/C=C/c2ccccc2)CC(OC(C)=O)C2(C)C1CC1CC(OC(C)=O)C(C)=C(C(OC(C)=O)C2OC(C)=O)C1(C)C` (stereo not given), for which the GI50 was inactive: > 100 µM. In the case of `OCCNc1ncnc2c1ncn2C1OC(CO)C(O)C1O` (stereo not given), the GI50 was inactive: 38.4 µM. For the compound `CCCCC1=C(Br)C(=C(Br)Br)OC1=O`, the GI50 is inactive: 9.06 µM.

In the case of `CN(O)C(=O)Cc1ccc(OCc2cccc(Cl)c2)cc1`, the GI50 was inactive: > 100 µM.
